# Source: publication PMC4336329 (PLoS ONE, 2015)
# Screen size: about 310,000 compounds; about 2,200 (0.71%) showed an effect of 50% or more. The effect is printed as a negative number. Some of the results follow.
# Biological target: human ether-à-go-go-related gene (hERG) potassium channel (human, UniProt Q12809)
# Assay: primary screen, population patch clamp on CHO cells stably expressing hERG
# human ether-à-go-go-related gene (hERG) potassium channel, sequence (Q12809 whole entry, looked up): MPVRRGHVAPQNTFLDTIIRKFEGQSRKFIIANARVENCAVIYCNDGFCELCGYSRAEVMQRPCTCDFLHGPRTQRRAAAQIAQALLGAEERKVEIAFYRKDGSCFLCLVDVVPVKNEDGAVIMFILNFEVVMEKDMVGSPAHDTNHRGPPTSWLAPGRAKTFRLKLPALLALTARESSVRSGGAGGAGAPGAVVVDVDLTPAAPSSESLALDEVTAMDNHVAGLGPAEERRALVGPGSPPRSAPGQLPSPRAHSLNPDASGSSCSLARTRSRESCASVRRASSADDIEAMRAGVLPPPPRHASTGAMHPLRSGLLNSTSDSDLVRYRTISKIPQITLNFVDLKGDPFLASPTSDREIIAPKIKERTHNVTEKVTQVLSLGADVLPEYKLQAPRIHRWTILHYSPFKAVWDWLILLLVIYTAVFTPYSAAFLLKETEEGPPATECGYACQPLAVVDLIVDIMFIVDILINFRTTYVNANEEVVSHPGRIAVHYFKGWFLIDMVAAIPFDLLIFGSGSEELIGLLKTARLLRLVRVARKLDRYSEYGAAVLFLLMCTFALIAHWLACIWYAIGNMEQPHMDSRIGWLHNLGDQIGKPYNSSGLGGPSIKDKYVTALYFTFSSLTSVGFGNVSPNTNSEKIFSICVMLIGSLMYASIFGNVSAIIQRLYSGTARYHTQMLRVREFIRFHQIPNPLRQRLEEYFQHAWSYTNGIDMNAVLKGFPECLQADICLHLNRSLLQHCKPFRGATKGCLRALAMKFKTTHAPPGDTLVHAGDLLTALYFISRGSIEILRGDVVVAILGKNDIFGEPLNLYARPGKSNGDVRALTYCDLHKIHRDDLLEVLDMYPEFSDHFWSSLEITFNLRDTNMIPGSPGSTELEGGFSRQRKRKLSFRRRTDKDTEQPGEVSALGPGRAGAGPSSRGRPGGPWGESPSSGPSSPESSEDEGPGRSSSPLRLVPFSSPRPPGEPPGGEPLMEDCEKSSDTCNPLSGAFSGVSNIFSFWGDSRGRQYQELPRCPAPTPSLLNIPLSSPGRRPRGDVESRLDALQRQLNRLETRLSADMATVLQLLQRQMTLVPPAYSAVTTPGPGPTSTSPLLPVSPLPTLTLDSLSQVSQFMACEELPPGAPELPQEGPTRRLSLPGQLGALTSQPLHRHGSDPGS
row,SMILES,"hERG current change (%, negative = inhibition) at 1uM"
1,Cc1cccc(N(Cc2ccccc2)C(=O)CN2C(=O)NC3(CCCCC3C)C2=O)c1 (centres unmarked),2.38%
2,Cc1c(Cl)cccc1NC(=O)CN1CCN(CCN=CC2=C(O)CC(c3ccccc3)CC2=O)CC1 (centres unmarked),12.8%
3,COC(=O)C(CC(C)C)NC(=O)CSc1nc(-c2ccccc2)c(C#N)c(=O)[nH]1 (centres unmarked),-2.2%
4,Cc1c(C(=O)N/N=C/c2cccs2)nnn1-c1nonc1N,10.4%
5,COc1cccc(Oc2ccc(N)cn2)c1,5.57%
6,Cc1cccnc1CCNC(=O)CCc1nnc(CCc2ccccc2)o1,5.84%
7,CCCN(CC(=O)Nc1ccccc1C)C(=O)CCN1C(=O)c2cccc([N+](=O)[O-])c2C1=O,-2.29%
8,COc1ccc(/C=C(\NC(=O)c2ccc(OC)cc2)C(=O)Nc2ccccc2C(=O)O)cc1,3.58%
9,CC1(C)c2cc(Cl)ccc2-n2c1cc(O)c(-c1ccccc1)c2=O,16.1%
10,CCOC(=O)CSc1c(-c2ccc(Cl)cc2)[nH]c2ccccc12,1.02%
11,CCOC(=O)C(C)c1c(C)[nH]c(=S)[nH]c1=O (centres unmarked),10.8%
12,CCCCn1c(N)c(N(CCC(C)C)C(=O)c2c(C)noc2C)c(=O)[nH]c1=O,10.2%
13,O=C(Nc1ncc([N+](=O)[O-])s1)C1CC(=O)N(c2ccc(F)cc2)C1 (centres unmarked),5.93%
14,CCC(CC)C(=O)NCCc1ccc(OC)cc1,12.7%
15,COCCN(C(=O)C1CCCC1)c1c(N)n(Cc2ccccc2)c(=O)[nH]c1=O,0.45%
16,Cc1cccc(-n2nc3c(c2NC(=O)C2CC2)CS(=O)(=O)C3)c1C,11.4%
17,COc1ccc(C)cc1-n1[nH]nnc1=S,8.77%
18,Cc1occc(=O)c1OCc1ccc(Cl)cc1Cl,6.19%
19,O=C(CC1C(=O)NCCN1Cc1ccc(Cl)c(F)c1)NCCc1cccnc1 (centres unmarked),4.11%
20,COc1cc(/C=N/n2c(=S)[nH]nc(C)c2=O)cc([N+](=O)[O-])c1O,16.7%
21,CC(=O)NC1=NC(=O)CS1,2.84%
22,COCCn1c(C)cc(C(=O)CSc2nc(C)nc3sc4c(c23)CCC4)c1C,11.9%
23,O=C(CCC(=O)NC1CCCCC1)N/N=C/c1ccncc1,12.8%

row,SMILES,"hERG current change (%, negative = inhibition) at 1uM"
1,O=C(CSc1nnnn1C1CCCCC1)Nc1ccccc1N1CCOCC1,10.4%
2,CC(NC(=O)COC(=O)COc1ccc(C(=O)c2ccccc2)cc1)c1ccccc1 (centres unmarked),6.71%
3,Cc1ccc(N2CCN(S(=O)(=O)c3ccc4c(c3)oc(=O)n4C)CC2C)cc1 (centres unmarked),14.1%
4,Cc1nc2ccccc2c(=O)n1-c1ccc(Cl)c(Cl)c1,8.74%
5,CCN(CC)Cc1c(O)ccc2c(=O)c(-c3ccccc3OC)coc12,15.6%
6,CCCN(CC(=O)Nc1ccccc1OC)C(=O)CCNC(=O)c1ccccc1OC,3.67%
7,O=C(CCc1nnc(CCCc2ccccc2)o1)NC(C1CC1)C1CC1,10.5%
8,O=C(Nc1cccc2ccccc12)c1ccc([N+](=O)[O-])o1,14%
9,CCCNC(=O)Cn1cccc1C(=O)c1ccccc1,12.7%
10,Brc1ccc(-c2nc3ccccc3s2)s1,2%
11,COc1cc(/C=N/n2c(-c3cc(C)[nH]n3)n[nH]c2=S)cc(OC)c1O,15.7%
12,CC(C)(C)OC(=O)N1CCC(C(=O)N2CCC[C@H]2C(=O)O)CC1,16.7%
13,C=CCn1c(=O)c2ccc(C(=O)NCc3ccccc3)cc2n(Cc2cccc(Cl)c2)c1=O,18.7%
14,O=[N+]([O-])c1cccc(-c2c(-c3ccccc3)ncc3ccc(F)cc23)c1,4.52%
15,CC(C)CCNC(=O)CO/N=C/c1ccccc1OC(F)F,11.3%
16,CCOC(=O)c1ccccc1NC(=O)Cn1cnc2c(cnn2C(C)(C)C)c1=O,11.1%
17,CCOc1ccc2nc(N3CCC(C(=O)NCCCN4CCOCC4)CC3)sc2c1,7.82%
18,CC(C)C(=O)Nc1ccc(C(=O)NC2CCSC2=O)cc1 (centres unmarked),22.9%
19,CC(C)(C)C(=O)N1CCN(CCN2C(=O)c3cccc4cccc(c34)C2=O)CC1,15.6%
20,CC1(C)CC(=O)c2sc(NS(=O)(=O)c3ccc([N+](=O)[O-])cc3)nc2C1,18.3%
21,COc1ccc(C(=O)c2c(C)oc3ccc(O)cc23)c(OC)c1,13.8%
22,O=C(Nc1cccnc1)/C(N=Nc1c(Cl)cccc1Cl)=C(\O)c1ccccc1,9.29%
23,CC(C)c1ccc(C(C(=O)NC2CCCCC2)N(C(=O)c2csnn2)C2CC2)cc1 (centres unmarked),16.8%

row,SMILES,"hERG current change (%, negative = inhibition) at 1uM"
1,COc1ccc(CC(=O)N/N=C/c2cc([N+](=O)[O-])cc(Br)c2O)cc1,3.83%
2,COc1cc(S(=O)(=O)Nc2ccc3cn[nH]c3c2)ccc1Cl,10.1%
3,O=C(CC1C(=O)NCCN1C/C=C/c1ccccc1)NCCc1ccncc1 (centres unmarked),5.73%
4,CCOc1cc(/C=N/NC(=O)N/N=C/c2ccc(O)c(OCC)c2)ccc1O,1.38%
5,COc1ccccc1-c1n[nH]c(=S)n1-c1ccccc1,9.58%
6,NNc1nc2sc3c(c2c(=O)n1C1CCCCC1)CCN(Cc1ccccc1)C3,11.9%
7,CC(C)c1ccc(NC(=O)COC(=O)CSc2nnc(N)s2)cc1,14.1%
8,COc1ccc(CCNC(=O)CN2C(=O)NC(C)(c3ccc([N+](=O)[O-])cc3)C2=O)cc1 (centres unmarked),-13.3%
9,O=P(OC1CCCCC1)(OC1CCCCC1)C(O)c1c(Cl)cccc1Cl (centres unmarked),1.86%
10,COc1cccc(-n2cc(C(=O)NCCCOC(C)C)c3ccccc3c2=O)c1,13%
11,Cc1n[nH]c(C)c1C(=O)CC1(O)C(=O)N(Cc2ccccc2)c2ccc(Br)cc21 (centres unmarked),10.8%
12,COc1ccc(S(=O)(=O)N2CCCC(C(=O)NCCC(C)C)C2)cc1 (centres unmarked),8.25%
13,CC(=O)c1cccc(NC(=O)C(C)OC(=O)c2cc(=O)[nH]c3ccccc23)c1 (centres unmarked),5.09%
14,Cc1c(-c2n[nH]c(=S)n2-c2ccc(C(F)(F)F)cc2)nnn1-c1ccccc1,21.7%
15,COc1ccc(CCN(C)CCC(=O)Nc2ccc(C)cc2)cc1OC.Cl,-35.9%
16,Cc1nn(-c2ccccc2)c(C)c1/C=C/C(=O)OC(C)C(N)=O (centres unmarked),7.39%
17,O=C(O)CSc1ccccc1C(=O)O,1.54%
18,COc1ccc(CC(=O)NC(C)c2nnc(SCC(=O)c3ccc(Br)cc3)n2C)cc1 (centres unmarked),1.07%
19,CC(C)c1ccccc1OS(N)(=O)=O,4.02%
20,C=CCn1c(SCC(=O)N2CC(=O)Nc3ccccc32)nc2scc(-c3ccccc3)c2c1=O,8.29%
21,Cc1ccc(C(=O)NCCCN2CCOCC2)cc1,9.79%
22,COc1ccc(S(=O)(=O)N2CCC(NC(=O)C(Cc3cccc(OC)c3OC)NC(C)=O)CC2)cc1 (centres unmarked),13%
23,CCOC(=S)SCc1cn2ccc(C)cc2n1,-0.643%

row,SMILES,"hERG current change (%, negative = inhibition) at 1uM"
1,Cc1cccc(N(CC(=O)N2CCCCCC2)S(C)(=O)=O)c1,15.2%
2,COc1cc2c(C#N)c(N3CCN(C)CC3)nc(N)c2c(N)n1,5.12%
3,Cc1ccccc1-c1nc2c(s1)CCc1onc(-c3ccc(Cl)cc3)c1-2,14.4%
4,CCOC(=O)c1c(C)[nH]c(C)c1S(=O)(=O)NCCc1sccc1C,20.2%
5,COc1ccc(C(NC(=O)C(C)C)c2c(O)ccc3ccccc23)cc1OC (centres unmarked),7.99%
6,COc1ccccc1N1CCN(c2ncnc3sc(C(=O)NCC4CCCO4)c(C)c23)CC1 (centres unmarked),17.1%
7,COC(=O)c1c(NC(=O)C(=O)NCCCN2CCOCC2)sc2c1CCC2,20.6%
8,c1ccc(Cn2nnc3c(N4CCc5ccccc54)ncnc32)cc1,9.78%
9,CC(=O)N1c2ccc(S(=O)(=O)N3CCCCC3)cc2CC1C(=O)Nc1ccc(C)cc1 (centres unmarked),6.92%
10,CCOc1ccc(-c2c(C(=O)N/N=C(\C)c3ccncc3)nnn2-c2nonc2N)cc1,9.33%
11,Cc1ccc(C2N3CC4([N+](=O)[O-])CN2CC([N+](=O)[O-])(C3)C4(C)C)cc1 (centres unmarked),8.44%
12,O=C(O)c1ccccc1OCc1ccccc1Cl,10.8%
13,Cc1cccc(NC(=O)c2ccc(S(=O)(=O)N3CC(C)OC(C)C3)cc2)n1 (centres unmarked),7.27%
14,CCN(CC)c1ncnc2scc(C3COc4ccccc4O3)c12 (centres unmarked),8.61%
15,CCn1c(=O)n(CC)c2cc(NS(=O)(=O)c3ccccc3)ccc21,-2.94%
16,Cc1ccc(-c2csc3ncnc(Cl)c23)cc1,7.18%
17,CCCOc1ccc(N/C=C/C(=O)C(C)(C)C)cc1,19.8%
18,CC(C)(C)C(=O)/C(C#N)=C/c1ccc(O)cc1,15.2%
19,Cc1cccc(N2CCN(C(=O)C3CCCCC3)CC2)c1C,-2.42%
20,CC(C)(C)NC(=O)c1ccc2nsnc2c1,6.08%
